# Measurements taken from the supplement of paper PMC8728848.
# Some of the results follow.
# B1: PX15618A-bth-503-24-503 (Bacteroides thetaiotaomicron) (protein)
# chain: NKSEDKLSGDDFWAQGNETNAEAFLLSIYNSFRNATMSQRPFLTYSGDMRCAPITAYSTGDKYVAYLANNDMGELRNTYPDDARGGLIMQWDVFYTAIQDANILLAEIDKVPGMDELKRSRFKAEAIFMRSLSYFFIVRAFGDVPYYTNAYNEAPLPRTNMVIVLQNCLADLQPLLDDDPGAEVLPWSYSSYSSKGIRASRGSVIALMMHINLWLVQFDAQNKEQYYRNVVSLGEELERNNGAYSLLDINRSSVIFAGGSDEGLFEIAQNINFNEIFMMNAKFSDNVSYSCLNKSMPLFCYSGDYLMTLFPMYEDDARKELWFDEKIYSTSVSSSAPKEIKKFWNIDTYGNGTITSNSGNQIVFRYAGALLLYAEALAALGTNDTKACELLNRVRNRAHASEINTSGSELMDAIFWERCRELIGEGHYYYDLVRTGKVYNRNYCMNPMTRTNFNVGAWTWPIHRNALKNNTQIGLNLFWE
# Tests used:
# Experiment in all cases: glycan array binding signal (z-score within array); higher = stronger binding
# Details in all cases: glycan notation: IUPAC condensed, linker removed
# [1] = target: Gal(a1-3)Gal(b1-4)GlcNAc(b1-2)Man
# In short: (§1)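 Glycan array binding is given as a within-array Z-score, which can be read as non-binding when negative. The arrays, 3228 of them, came from the Consortium for Functional Glycomics database and were retained only where the protein sequence was available. Z-scores were averaged across arrays of the same protein sequence at different concentrations or buffers and across linkers.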
# [2] = target: Gal(a1-3)Gal(b1-4)GlcNAc(b1-2)Man(a1-3)[Gal(a1-3)Gal(b1-4)GlcNAc(b1-2)Man(a1-6)]Man(b1-4)GlcNAc(b1-4)GlcNAc
# In short: as §1
# [3] = target: Gal(a1-3)Gal(b1-4)GlcNAc(b1-3)GalNAc
# In short: as §1
# [4] = target: Gal(a1-3)Gal(b1-4)GlcNAc(b1-6)GalNAc
# In short: as §1
# [5] = target: Gal(a1-3)Gal(b1-4)[Fuc(a1-3)]GlcNAc
# In short: as §1
# [6] = target: Gal(a1-3)Gal(b1-4)[Fuc(a1-3)]GlcNAc(b1-2)Man(a1-3)[Gal(a1-3)Gal(b1-4)[Fuc(a1-3)]GlcNAc(b1-2)Man(a1-6)]Man(b1-4)GlcNAc(b1-4)GlcNAc
# In short: as §1
# Gal(a1-3)GalNAc = target: Gal(a1-3)GalNAc
# In short: as §1
# [7] = target: Gal(a1-3)[Gal(a1-4)]Gal(b1-4)GlcNAc
# In short: as §1
# [8] = target: Gal(a1-4)Gal(b1-3)GlcNAc(b1-2)Man(a1-3)[Gal(a1-4)Gal(b1-3)GlcNAc(b1-2)Man(a1-6)]Man(b1-4)GlcNAc(b1-4)GlcNAc
# In short: as §1
# Gal(a1-4)Gal(b1-4)Glc = target: Gal(a1-4)Gal(b1-4)Glc
# In short: as §1
# Gal(a1-4)Gal(b1-4)GlcNAc = target: Gal(a1-4)Gal(b1-4)GlcNAc
# In short: as §1
# [9] = target: Gal(a1-4)Gal(b1-4)GlcNAc(b1-2)Man(a1-3)[Gal(a1-4)Gal(b1-4)GlcNAc(b1-2)Man(a1-6)]Man(b1-4)GlcNAc(b1-4)GlcNAc
# In short: as §1
# [10] = target: Gal(a1-4)Gal(b1-4)GlcNAc(b1-3)Gal(b1-4)Glc
# In short: as §1
# Gal(a1-4)GlcNAc = target: Gal(a1-4)GlcNAc
# In short: as §1
# Gal(a1-6)Glc = target: Gal(a1-6)Glc
# In short: as §1
# Gal(b1-2)Gal = target: Gal(b1-2)Gal
# In short: as §1
# Gal(b1-3)Gal = target: Gal(b1-3)Gal
# In short: as §1
# Gal(b1-3)Gal(b1-4)GlcNAc = target: Gal(b1-3)Gal(b1-4)GlcNAc
# In short: as §1
# Gal(b1-3)GalNAc = target: Gal(b1-3)GalNAc
# In short: as §1
# [11] = target: Gal(b1-3)GalNAc(a1-3)[Fuc(a1-2)]Gal(b1-4)Glc
# In short: as §1
# [12] = target: Gal(b1-3)GalNAc(a1-3)[Fuc(a1-2)]Gal(b1-4)GlcNAc
# In short: as §1
# Gal(b1-3)GalNAc(b1-3)Gal = target: Gal(b1-3)GalNAc(b1-3)Gal
# In short: as §1
# [13] = target: Gal(b1-3)GalNAc(b1-3)Gal(a1-4)Gal(b1-4)Glc
# In short: as §1
# [14] = target: Gal(b1-3)GalNAc(b1-4)Gal(b1-4)Glc
# In short: as §1
# [15] = target: Gal(b1-3)GalNAc(b1-4)[Neu5Ac(a2-3)]Gal(b1-4)Glc
# In short: as §1
# Gal(b1-3)GlcNAc = target: Gal(b1-3)GlcNAc
# In short: as §1
# [16] = target: Gal(b1-3)GlcNAc(a1-3)Gal(b1-4)GlcNAc
# In short: as §1
# [17] = target: Gal(b1-3)GlcNAc(a1-6)Gal(b1-4)GlcNAc
# In short: as §1
# Gal(b1-3)GlcNAc(b1-2)Man = target: Gal(b1-3)GlcNAc(b1-2)Man
# In short: as §1
# [18] = target: Gal(b1-3)GlcNAc(b1-2)Man(a1-3)[Gal(b1-3)GlcNAc(b1-2)Man(a1-6)]Man(b1-4)GlcNAc(b1-4)GlcNAc
# In short: as §1
# [19] = target: Gal(b1-3)GlcNAc(b1-2)Man(a1-3)[Gal(b1-3)GlcNAc(b1-2)Man(a1-6)]Man(b1-4)GlcNAc(b1-4)[Fuc(a1-6)]GlcNAc
# In short: as §1
# [20] = target: Gal(b1-3)GlcNAc(b1-2)Man(a1-3)[GlcNAc(b1-4)][Gal(b1-3)GlcNAc(b1-2)Man(a1-6)]Man(b1-4)GlcNAc(b1-4)GlcNAc
# In short: as §1
# [21] = target: Gal(b1-3)GlcNAc(b1-2)[Gal(b1-3)GlcNAc(b1-6)]Man(a1-6)[Gal(b1-3)GlcNAc(b1-2)Man(a1-3)]Man(b1-4)GlcNAc(b1-4)GlcNAc
# In short: as §1
# [22] = target: Gal(b1-3)GlcNAc(b1-3)Gal(b1-3)GlcNAc
# In short: as §1
# [23] = target: Gal(b1-3)GlcNAc(b1-3)Gal(b1-4)Glc
# In short: as §1
# [24] = target: Gal(b1-3)GlcNAc(b1-3)Gal(b1-4)GlcNAc
# In short: as §1
# [25] = target: Gal(b1-3)GlcNAc(b1-3)Gal(b1-4)GlcNAc(b1-2)Man(a1-3)[Gal(b1-3)GlcNAc(b1-3)Gal(b1-4)GlcNAc(b1-2)Man(a1-6)]Man(b1-4)GlcNAc(b1-4)GlcNAc
# In short: as §1
binder,measurement,setting,value
B1,glycan array binding signal (z-score),[1],-0.115
same,glycan array binding signal (z-score),[2],0.355
same,glycan array binding signal (z-score),[3],0.031
same,glycan array binding signal (z-score),[4],-0.447
same,glycan array binding signal (z-score),[5],-0.213
same,glycan array binding signal (z-score),[6],0.658
same,glycan array binding signal (z-score),Gal(a1-3)GalNAc,-0.389
same,glycan array binding signal (z-score),[7],3.72
same,glycan array binding signal (z-score),[8],0.075
same,glycan array binding signal (z-score),Gal(a1-4)Gal(b1-4)Glc,0.319
same,glycan array binding signal (z-score),Gal(a1-4)Gal(b1-4)GlcNAc,-0.12
same,glycan array binding signal (z-score),[9],0.105
same,glycan array binding signal (z-score),[10],-0.389
same,glycan array binding signal (z-score),Gal(a1-4)GlcNAc,0.225
same,glycan array binding signal (z-score),Gal(a1-6)Glc,-0.371
same,glycan array binding signal (z-score),Gal(b1-2)Gal,-0.544
same,glycan array binding signal (z-score),Gal(b1-3)Gal,0.14
same,glycan array binding signal (z-score),Gal(b1-3)Gal(b1-4)GlcNAc,-0.654
same,glycan array binding signal (z-score),Gal(b1-3)GalNAc,-0.315
same,glycan array binding signal (z-score),[11],-0.329
same,glycan array binding signal (z-score),[12],0.026
same,glycan array binding signal (z-score),Gal(b1-3)GalNAc(b1-3)Gal,-0.346
same,glycan array binding signal (z-score),[13],-0.567
same,glycan array binding signal (z-score),[14],-0.291
same,glycan array binding signal (z-score),[15],-0.295
same,glycan array binding signal (z-score),Gal(b1-3)GlcNAc,-0.227
same,glycan array binding signal (z-score),[16],-0.121
same,glycan array binding signal (z-score),[17],-0.593
same,glycan array binding signal (z-score),Gal(b1-3)GlcNAc(b1-2)Man,-0.277
same,glycan array binding signal (z-score),[18],0.413
same,glycan array binding signal (z-score),[19],0.309
same,glycan array binding signal (z-score),[20],-0.221
same,glycan array binding signal (z-score),[21],2.47
same,glycan array binding signal (z-score),[22],-0.574
same,glycan array binding signal (z-score),[23],-0.247
same,glycan array binding signal (z-score),[24],0.29
same,glycan array binding signal (z-score),[25],-0.123
